Laboratory results as given in the RNAGym collection of RNA variant scans (doi:10.7554/elife.90254).
Read counts are not given, so values of variants with three or more changes are uncertain.

B1: LINE1-full (parent)
chain: UACGUAGGUGGUUUUCCCCUGAUAGUGCUAAGGGGGCCUGGAAGUUUGGACUGGGCAGAGCUCAACACAGCGUGGCAAAGUGGCUGUGGCUAGACUGCCUCUCUGGAUUCCUCGUCACUCAGCAGGGCAUCUCUGAGAGAAAUGCC

Variants of: B1
Assay: self-cleavage, relative activity (ratio to wild type); higher = more cleavage; in vitro, sequencing; the parent is a self-cleaving ribozyme

Row | Variant | self-cleavage
1 | G49A A78G U100C | 1.91
2 | U45C A124G A140G | 0.13
3 | U15G A24G A57U A121G | 1.53
4 | G35A U62C A94U U102C A107U U109C A121G | 0
5 | U20A U46C A78G A117U | 0.33
6 | G4A U45C A65G A117U | 0.06
7 | U14C A43G C99U A138G | 0.87
8 | A42U U46A C90U A129G A141G | 0.03
9 | A43G U73C A138G | 0.54
10 | A57G U62C A138G | 0.11
11 | U47C A136G A142G | 1.97
12 | G7A A43U U62C | 0.08
13 | U5C U26C C90U | 0.21
14 | U14C A59G U132A | 0.25
15 | A59U U62C C95U | 0.02
16 | U39C C56U U100A | 0.02
17 | G35A U100A A140G | 0.49
18 | U13C U14C C123U | 1.08
19 | U12C U87C U143A | 0
20 | A2G U13C A121U A138U | 1.25
21 | A22U U23A A43G A67G C90A | 0.1
22 | U14C G32A U134C | 1.56
23 | U13C G106A U132A | 1.65
24 | U12C A65U A77G U108A | 0.31

Row | Variant | self-cleavage
25 | U52C C113U A121G U130C | 1.64
26 | A31G A42G A65G A77G | 0
27 | A2G G33C U45C A129G | 0
28 | U5A G21A A142G | 1.46
29 | U46C A78G A138G | 1.97
30 | U1C A77G U100C | 0.46
31 | C56U C90U C95U | 0.05
32 | C19U U108C A117U | 1.78
33 | U91C U102A C103A | 0.75
34 | A42G U47C A77U | 1.33
35 | U46C C68A U112C | 0
36 | U20C A43U G72U U132C | 0.97
37 | U20A U119A A121U C145A | 1.64
38 | A2G C38A A138U | 0.46
39 | U12C C19U U46C U87A | 0.25
40 | A22G G60A A92G | 0.14
41 | U14A U112C U132A | 0.74
42 | C3U G49A U104C U115C | 1.1
43 | G40A A57G A79G U108A | 0.62
44 | A24U A43U U47C U96A U112C A138G | 0.22
45 | U46C U73A U104C | 1.84
46 | U15C C19U C63U A67G A78G A141G | 0.13
47 | A6G G41A U130C | 1.28
48 | A22G A92U A140G | 1.26

Row | Variant | self-cleavage
49 | C17U U47A U87C U100C | 0.56
50 | U9A A22G U73A A79G A92G | 0.48
51 | U39A A65U U85A | 0.03
52 | A69G A124U U130G U134C | 1.53
53 | A30U U115C G125A | 1.56
54 | U73A A107U A117U | 1.66
55 | G11A U87A U108C U115A | 0.08
56 | A2G U14C A59G U73A U112C | 0
57 | U12G U14C A50G G97U | 0.27
58 | U62C A65G A140G | 0.11
59 | U12C A22G A78U U81A U87C | 0.25
60 | A42U A138G C146A | 0.72
61 | U20C G40C A57U A79G A142G U143A | 0.2
62 | C38A C76U U100C U134C | 2.5
63 | U13C U14C A24U U62C G106A | 0.1
64 | U20C A77U C113U | 1.41
65 | U23C A94U U109C | 0.47
66 | C3U U29C U87C | 0
67 | C61A U100A A124G U130C | 0
68 | A6G A78G U143C | 0.69
69 | U14A A24U G32A C113U | 0.69
70 | U1C C95U U115C U119C A141G | 0.35
71 | U13C A69G C120U | 0.8
72 | U12C U102C C146U | 1.31

Row | Variant | self-cleavage
73 | A129G A141U A142G | 1.5
74 | G21U G33U U73C | 1.67
75 | A107G A124G A136G | 0.84
76 | U45A G86A U115C | 0.09
77 | G34A U112C U119A | 1.04
78 | U23C A50G G74A U108C | 0
79 | U13C A42G A59G | 0.19
80 | U20C U62A A77G | 0
81 | U20G A78G A142G | 0.64
82 | A77U A136U C146U | 0.94
83 | U1C A78U U119A | 1.56
84 | U102C U115A A136G | 1.27
85 | G40U U47G A64U | 0.6
86 | U39C A117U U130C | 2.01
87 | U14C A64G A94G | 0
88 | A79G C90U A92G | 0.06
89 | U14C A65G U87C | 0.3
90 | A65U U104A A129U U143C | 0.21
91 | C3G U29C U102C | 0.84
92 | U5A U26C G34A A142G | 1.22
93 | G35A A142U C146G | 1.43
94 | U12G A79U U81C U108G A136G | 0
95 | U26A A59G U85C | 0.04
96 | A42G U45C A64U U100C U104A A138G | 0.21

Row | Variant | self-cleavage
97 | U5C A57G U73C A129U A141G | 0
98 | U1C C101U U102C U130C | 0.53
99 | A43G A64G A140G | 1.34
100 | A6G U9A U13C | 1.31
101 | U29G A30G A42G U62A | 0
102 | A43G A57G G93A A140G | 0.1
103 | A42G A43U U96A U104C | 0.1
104 | A6U U45A G48U | 1.08
105 | U12C C18U U143A | 0.84
106 | U13C U39C U143A | 0.83
107 | A31G A42U U52C A69G U130C | 0
108 | U46C U62C A140G U143C | 0.5
109 | U12G U15A U45C U62A | 0
110 | U47C C84A A121G | 0.15
111 | U14C U115C A141G | 1.62
112 | A24U U119A U132A A142G U143A | 1.38
113 | U29G U45C G58A | 0.26
114 | U73A A94G A107G | 0.33
115 | A57G G70A A140C | 0.05
116 | U20G A79G A92G | 0
117 | U39C A79G C99U A121G U130C | 0.72
118 | U13C U46C U47A | 1.49
119 | U15C A22G A24U | 1.31
120 | A22G A31G A64U U96A U115C | 0

Row | Variant | self-cleavage
121 | A2G A79U U104A U134C | 1.96
122 | U1C U15C U46C A57U U109A | 0.1
123 | U52C A65G A124U | 0
124 | U13C U14C G34A U96A U119A A141G U143C | 0.2
125 | A57U A78G C99U U104C U112A | 0
126 | U14A G60A A65G A129G | 0.09
127 | A2G U96C G114A | 0
128 | U23C U45A G48A A77G U85C | 0.33
129 | U5C A77G U81C | 0.37
130 | A57U G72A A107G U130C | 0.08
131 | A78G U81C A117U | 0.84
132 | A30G U112C A138G | 1.23
133 | U14C U96A G126U A140U A142C | 0.08
134 | U12C C19U U20C A124G | 1.41
135 | U119A A136U A142G | 1.51
136 | U1C U9C U47A | 0.27
137 | U1C U45C U46A U81C | 0
138 | U14A U62C A78G U102C | 0
139 | A67U A92G C116U U130C | 0
140 | U13C A136G A140G | 1.88
141 | A69U A77U A138U | 0.04
142 | G10A U62C U73C A78U | 0.09
143 | A59U G97U U119C | 0.08
144 | A2U U5C C19G A77G | 1.84

Row | Variant | self-cleavage
145 | G55A A59G U91C | 0.02
146 | C38U U96C A138G | 0.08
147 | A57U U132C A141G | 0.04
148 | A57U A79G A124G A141G | 0
149 | G55A A67G U73C U87A U134C | 0.05
150 | C51G A64G G74A A92G | 0.1
151 | A59G U62C U81A U134A | 0.09
152 | A78G U100C U102G U108A | 0
153 | A78G U109A U115G | 0.53
154 | U26G U29A U119C | 2.3
155 | U9C U20C C99G | 0
156 | A6U A30G U104C | 0.69
157 | U46C G88A A94G U100C A121U A136G | 0.07
158 | U39C U52A G54A | 0.47
159 | U12C A64G A65U U104G U112A | 0
160 | U13C A79G U109G | 0.57
161 | C3U A124G U134C A140G A142G | 0.68
162 | G58A C71A A77G A124G A140G | 0.02
163 | U15C U81C U87C | 0
164 | U96G U104A A142G | 0.09
165 | U29A U119C A138G A141G | 1.47
166 | C28G A69U A79G | 0.07
167 | U12C U87A U96C A121U | 0
